This is one part of the list. Sequences were assembled here from the parent chain. Values near 0.05 are background.
B1: TEV protease; numbered along this chain (parent)
chain: MGESLFKGPRDYNPISSSICHLTNESDGHTTSLYGIGFGPFIITNKHLFRRNNGTLVVQSLHGVFKVKDTTTLQQHLVDGRDMIIIRMPKDFPPFPQKLKFREPQREERICLVTTNFQTKSMSSMVSDTSCTFPSGDGIFWKHWIQTKDGQCGSPLVSTRDGFIVGIHSASNFTNTNNYFTSVPKNFMELLTNQEAQQWVSGWRLNADSVLWGGHKVFMVKPEEPFQPVKEATQL

Variants of: B1
Experiment: raw area under fraction-flipped curve 0-4 h after induction (AUC4h, not background-subtracted), DNA-recorder readout of cleavage of the substrate (dimensionless); higher = more cleavage of the substrate by the protease variant
Settings: temperature: 34 °C; time window: 0-4 h after rhamnose induction
Description: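 In vivo DNA recorder in E. coli TOP10(DE3) ΔrhaA at 34 °C. Each TEVp single-site mutant (parent TEVp 0) is paired with a single-site variant of the 7-mer TEVs (canonical ENLYFQ|S). The substrate sits between flexible linkers in a Bxb1-sfGFP-TEVs-SsrA fusion, so cleavage stabilises Bxb1 and speeds flipping of a recombination array, read by NGS. The value is the raw area under the fraction-flipped curve over 0-4 h after rhamnose induction (AUC4h), with ≥20 reads per time point. It is not background-subtracted; inactive controls average about 0.047.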
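Note: Bxb1 expression induced with 0.2% (w/v) L-rhamnose at OD600 near 0.5, cultures sampled hourly, flipped fraction per protease–substrate barcode pair counted by paired-end Illumina sequencing.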

Variant | area with substrate EALYFQS | area with substrate ECLYFQS | area with substrate EELYFQS | area with substrate EFLYFQS | area with substrate EGLYFQS | area with substrate EHLYFQS | area with substrate EILYFQS | area with substrate EKLYFQS | area with substrate ELLYFQS | area with substrate EMLYFQS | area with substrate EQLYFQS | area with substrate ERLYFQS | area with substrate ESLYFQS | area with substrate EVLYFQS | area with substrate EWLYFQS | area with substrate EYLYFQS | area with substrate EPLYFQS | area with substrate ETLYFQS | area with substrate EDLYFQS
H21D | 0.0709 | 0.0726 | 0.0995 | 0.0738 | 0.0807 | 0.0784 | 0.0801 | 0.0615 | 0.0832 | 0.105 | 0.0503 | 0.103 | 0.0863 | 0.064 | 0.0783 | 0.0766 |  |  | 
R102C | 0.0577 | 0.0504 | 0.0598 |  |  | 0.0567 |  | 0.0383 | 0.0611 | 0.061 | 0.0635 | 0.0629 | 0.0633 | 0.0553 | 0.071 | 0.0479 | 0.0688 | 0.0554 | 
T31F | 0.0996 |  |  | 0.0701 | 0.0733 | 0.0542 | 0.104 | 0.115 |  | 0.0995 | 0.0809 | 0.0935 | 0.107 | 0.0893 |  | 0.0945 | 0.0975 | 0.11 | 
T71L | 0.125 |  |  | 0.101 |  | 0.11 | 0.101 | 0.0939 |  | 0.103 | 0.13 | 0.0897 | 0.114 | 0.005 | 0.1 | 0.117 |  |  | 0.115
E108T | 0.0894 | 0.0723 | 0.1 | 0.0727 |  | 0.0826 | 0.0565 | 0.104 | 0.0553 | 0.0744 | 0.0773 | 0.0613 | 0.0921 |  | 0.0669 |  | 0.0609 | 0.0605 | 
L73Y | 0.0761 | 0.0727 | 0.0829 | 0.0653 | 0.0679 |  | 0.0779 | 0.0758 |  | 0.0849 | 0.0763 | 0.0818 | 0.0675 | 0.0613 | 0.0683 | 0.0716 |  | 0.0695 | 
H29L | 0.133 | 0.115 | 0.153 |  | 0.0961 | 0.113 | 0.107 | 0.112 | 0.0948 | 0.139 | 0.122 | 0.12 | 0.0911 | 0.113 | 0.0869 |  | 0.123 | 0.137 | 0.165
E231H | 0.123 | 0.0734 |  | 0.0879 | 0.093 |  |  | 0.123 |  |  | 0.105 |  | 0.15 | 0.082 | 0.0967 |  | 0.11 |  | 0.101
V113P | 0.0637 | 0.0602 | 0.0662 | 0.0712 | 0.0758 |  | 0.0756 | 0.075 | 0.0694 |  | 0.0736 | 0.0727 | 0.0694 | 0.0592 | 0.0522 | 0.0737 | 0.0847 | 0.0771 | 
N116Q | 0.123 | 0.113 |  | 0.0878 | 0.103 | 0.142 | 0.0923 | 0.103 | 0.0985 |  | 0.129 | 0.109 | 0.102 | 0.0952 | 0.135 |  |  | 0.112 | 0.113
H21N | 0.113 | 0.087 | 0.0976 | 0.0859 | 0.0876 | 0.082 | 0.0733 | 0.0977 |  | 0.11 | 0.0937 | 0.0904 | 0.0934 | 0.0902 |  |  |  |  | 
N177H | 0.0947 | 0.0971 |  | 0.0847 | 0.0793 | 0.0826 | 0.0719 | 0.0849 | 0.0731 | 0.092 | 0.093 | 0.0781 | 0.0857 | 0.0779 |  |  | 0.125 |  | 0.108

Source: the supplement of paper PMC12217912
